Results on 32 compounds are retold here after the supplement of paper PMC10037445.

Molecules are shown by their SMILES. Over roughly 2,900 compounds, “NF-kB SEAP reporter activity, fold change vs agonist alone” has its median near 0.99; the highest 2% begin near 2.6. This is one part of the list.

Experiment [1] deals with RAW-Dual. Nature of the experiment: NF-kB SEAP reporter activity, fold change vs agonist alone; cytotoxicity flag (confluency mask): cytotoxic (confluency <70% of control); higher = enhanced NF-kB activity. In outline:
(§1)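 After 50 nL of library stock was delivered by pin tool to RAW-Dual macrophages (50,000 cells/well, DMEM, 384-well plates), a PRR agonist was added 1 h later and the plates were kept at 37 °C, 5% CO2. Twenty hours later, IRF was read from supernatant by QuantiLuc luminescence and NF-κB by QuantiBlue absorbance at 620 nm. Reporter activity is stated as fold change over agonist-alone wells. Wells with IncuCyte confluency under 70% of agonist controls in both mask sets were counted as cytotoxic.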

Experiment [2] concerns RAW-Dual. Nature of the experiment: NF-kB SEAP reporter activity, fold change vs agonist alone; higher = enhanced NF-kB activity. The following applies: library stock concentration (final ~1000-fold dilution): 10 mM. In a few lines:
as §1

For experiment [3], the system named is RAW-Dual. Nature of the experiment: NF-kB SEAP reporter activity, fold change vs agonist alone; cytotoxicity flag (confluency mask): not cytotoxic; higher = enhanced NF-kB activity. In a few lines: as §1
Where [4] appears, read: agonist: ODN 1826 (TLR9) 0.5 ug/mL.
[5] abbreviates: agonist: Pam2CSK4 (TLR2/6) 0.1 ug/mL.
The mark [6] stands for this setting: agonist: Pam3CSK4 (TLR2/1) 0.1 ug/mL.
[7] abbreviates: cytotoxicity flag (confluency mask): cytotoxic (confluency <70% of control), agonist: Imiquimod (TLR7) […].
[8] abbreviates: cytotoxicity flag (confluency mask): cytotoxic (confluency <70% of control), agonist: MPLA (TLR4) […].
Where [9] appears, read: cytotoxicity flag (confluency mask): not cytotoxic, agonist: Imiquimod (TLR7) […].
Setting [10] is: cytotoxicity flag (confluency mask): not cytotoxic, agonist: MPLA (TLR4) […].

As to `Cc1ccc(C(=O)N(CCCN)C(c2nc3cc(Cl)ccc3c(=O)n2Cc2ccccc2)C(C)C)cc1` (stereo not drawn) (library stock concentration (final ~1000-fold dilution): 10 mM), the “NF-kB SEAP reporter activity” value in experiment [1] (agonist: LPS (TLR4) 0.1 ug/mL) worked out at 0.331; in experiment [1] (setting [4]) it was 0.254; in experiment [1] (setting [5]) it was 0.0886; in experiment [1] (setting [6]), 0.27.

As for `Cc1ccc(C(=O)N(CCCN)C(c2nc3cc(Cl)ccc3c(=O)n2Cc2ccccc2)C(C)C)cc1` (stereo not drawn), the entries for the “NF-kB SEAP reporter activity” value in experiment [2] (setting [7]) and in experiment [2] (setting [8]) were 1.41 and 0.878, respectively.

Take `COc1cc(C(=O)N(CCCc2ccccc2)Cc2ccc(CC(=O)O)cc2)cc(OC)c1C` (library stock concentration (final ~1000-fold dilution): 10 mM): the “NF-kB SEAP reporter activity” value in experiment [3] (agonist: LPS (TLR4) 0.1 ug/mL) amounted to 1.19; in experiment [3] (setting [4]), 0.976; in experiment [3] (setting [5]), 0.823; in experiment [3] (setting [6]), 0.908.

Take `COc1cc(C(=O)N(CCCc2ccccc2)Cc2ccc(CC(=O)O)cc2)cc(OC)c1C`: the “NF-kB SEAP reporter activity” value in experiment [2] (setting [9]) amounted to 1.1; in experiment [2] (setting [10]), 1.11.

Take `O=C(O)c1cc(O)c2ccccc2n1` (library stock concentration (final ~1000-fold dilution): 10 mM): the “NF-kB SEAP reporter activity” value in experiment [3] (agonist: LPS (TLR4) 0.1 ug/mL) turned out to be 0.956; in experiment [3] (setting [4]) it was 1; in experiment [3] (setting [5]) it was 1.08; in experiment [3] (setting [6]), 1.18.

On to `O=C(O)c1cc(O)c2ccccc2n1`, for which the “NF-kB SEAP reporter activity” value in experiment [2] (setting [10]) came out at 1.1.

As for `CCc1ccc(CCOc2ccc(CC3SC(=O)NC3=O)cc2)nc1.Cl` (stereo not drawn) (library stock concentration (final ~1000-fold dilution): 10 mM), the “NF-kB SEAP reporter activity” value in experiment [3] (agonist: LPS (TLR4) 0.1 ug/mL) is 1.03; in experiment [3] (setting [4]), 1.59; in experiment [3] (setting [5]), 1.07; in experiment [3] (setting [6]), 1.37.

In the case of `CCc1ccc(CCOc2ccc(CC3SC(=O)NC3=O)cc2)nc1.Cl` (stereo not drawn), the “NF-kB SEAP reporter activity” value in experiment [2] (setting [9]) amounted to 2.15; in experiment [2] (setting [10]), 1.76.

Turning to `O=C(NNS(=O)(=O)c1ccccc1F)c1cc(F)cc(-c2ccccn2)c1` (library stock concentration (final ~1000-fold dilution): 10 mM), the “NF-kB SEAP reporter activity” value in experiment [3] (agonist: LPS (TLR4) 0.1 ug/mL) worked out at 1.23; in experiment [3] (setting [4]) it was 1.2; in experiment [3] (setting [5]) it was 1.21; in experiment [3] (setting [6]) it was 1.12.

Take `O=C(NNS(=O)(=O)c1ccccc1F)c1cc(F)cc(-c2ccccn2)c1`: the “NF-kB SEAP reporter activity” value worked out at 0.918 in experiment [2] (setting [9]) and 1.3 in experiment [2] (setting [10]).

On to `CN(CC(=O)N(Cc1ccc(C2CCCCC2)cc1)c1ccc(C(=O)NO)cc1)S(=O)(=O)c1c(F)c(F)c(F)c(F)c1F`, for which the “NF-kB SEAP reporter activity” value in experiment [2] (setting [9]) is 1.3; in experiment [2] (setting [10]), 1.02.

For `CN(CC(=O)N(Cc1ccc(C2CCCCC2)cc1)c1ccc(C(=O)NO)cc1)S(=O)(=O)c1c(F)c(F)c(F)c(F)c1F` (library stock concentration (final ~1000-fold dilution): 10 mM), the “NF-kB SEAP reporter activity” value in experiment [3] (agonist: LPS (TLR4) 0.1 ug/mL) was determined as 0.324; in experiment [3] (setting [4]), 1.53; in experiment [3] (setting [5]), 0.374; in experiment [3] (setting [6]), 0.284.

Regarding `O=C1CCc2c(ccc3ccccc23)O1` (library stock concentration (final ~1000-fold dilution): 10 mM), the “NF-kB SEAP reporter activity” value is 0.939 in experiment [3] (agonist: LPS (TLR4) 0.1 ug/mL), 1.03 in experiment [3] (setting [4]), 1.06 in experiment [3] (setting [5]) and 0.968 in experiment [3] (setting [6]).

For `O=C1CCc2c(ccc3ccccc23)O1`, the figures for the “NF-kB SEAP reporter activity” value in experiment [2] (setting [9]) and in experiment [2] (setting [10]) were 0.981 and 1.04, respectively.

`C[C@@H]1O[C@@H](O[C@@H]2C(=O)c3c(O)cc(O)cc3O[C@H]2c2ccc(O)c(O)c2)[C@H](O)[C@H](O)[C@H]1O`: the results for the “NF-kB SEAP reporter activity” value in experiment [2] (setting [9]) and in experiment [2] (setting [10]) were 0.982 and 1.02, respectively.

`C[C@@H]1O[C@@H](O[C@@H]2C(=O)c3c(O)cc(O)cc3O[C@H]2c2ccc(O)c(O)c2)[C@H](O)[C@H](O)[C@H]1O` (library stock concentration (final ~1000-fold dilution): 10 mM): the “NF-kB SEAP reporter activity” value in experiment [3] (agonist: LPS (TLR4) 0.1 ug/mL) is 1.31; in experiment [3] (setting [4]), 1.15; in experiment [3] (setting [5]), 1.19; in experiment [3] (setting [6]), 1.01.

As to `Cc1c(OCC(F)(F)F)ccnc1C[S+]([O-])c1nc2ccccc2[nH]1` (stereo not drawn) (library stock concentration (final ~1000-fold dilution): 10 mM), the “NF-kB SEAP reporter activity” value in experiment [3] (agonist: LPS (TLR4) 0.1 ug/mL) amounted to 0.783; in experiment [3] (setting [4]), 1.13; in experiment [3] (setting [5]), 0.958; in experiment [3] (setting [6]), 1.

Turning to `Cc1c(OCC(F)(F)F)ccnc1C[S+]([O-])c1nc2ccccc2[nH]1` (stereo not drawn), the “NF-kB SEAP reporter activity” value in experiment [2] (setting [9]) turned out to be 1.02; in experiment [2] (setting [10]) it was 0.964.

For the compound `CC(O)COCC1OC2OC3C(COCC(C)O)OC(OC4C(COCC(C)O)OC(OC5C(COCC(C)O)OC(OC6C(COCC(C)O)OC(OC7C(COCC(C)O)OC(OC8C(COCC(C)O)OC(OC1C(O)C2O)C(O)C8O)C(O)C7O)C(O)C6O)C(O)C5O)C(O)C4O)C(O)C3O` (stereo not drawn), the “NF-kB SEAP reporter activity” value in experiment [2] (setting [10]) came to 1.1.

Turning to `CC(O)COCC1OC2OC3C(COCC(C)O)OC(OC4C(COCC(C)O)OC(OC5C(COCC(C)O)OC(OC6C(COCC(C)O)OC(OC7C(COCC(C)O)OC(OC8C(COCC(C)O)OC(OC1C(O)C2O)C(O)C8O)C(O)C7O)C(O)C6O)C(O)C5O)C(O)C4O)C(O)C3O` (stereo not drawn) (library stock concentration (final ~1000-fold dilution): 10 mM), the “NF-kB SEAP reporter activity” value in experiment [3] (agonist: LPS (TLR4) 0.1 ug/mL) turned out to be 1.3; in experiment [3] (setting [4]), 0.982; in experiment [3] (setting [5]) it was 1.22; in experiment [3] (setting [6]), 0.794.

For `COc1cc2c(Oc3ccc4[nH]c(C)cc4c3F)ncnc2cc1OCCCN1CCCC1.O=C(O)/C=C\C(=O)O`, the “NF-kB SEAP reporter activity” value in experiment [2] (setting [8]) turned out to be 2.65.

As to `COc1cc2c(Oc3ccc4[nH]c(C)cc4c3F)ncnc2cc1OCCCN1CCCC1.O=C(O)/C=C\C(=O)O` (library stock concentration (final ~1000-fold dilution): 10 mM), the “NF-kB SEAP reporter activity” value stood at 2.81 in experiment [1] (agonist: LPS (TLR4) 0.1 ug/mL), 0.402 in experiment [1] (setting [4]), 1.61 in experiment [1] (setting [5]) and 1.15 in experiment [1] (setting [6]).

For the compound `CCCC(NC(=O)C1C2CCCC2CN1C(=O)C(NC(=O)C(NC(=O)c1cnccn1)C1CCCCC1)C(C)(C)C)C(=O)C(=O)NC1CC1` (stereo not drawn), the “NF-kB SEAP reporter activity” value in experiment [2] (setting [9]) came out at 0.65; in experiment [2] (setting [10]), 1.02.

With `CCCC(NC(=O)C1C2CCCC2CN1C(=O)C(NC(=O)C(NC(=O)c1cnccn1)C1CCCCC1)C(C)(C)C)C(=O)C(=O)NC1CC1` (stereo not drawn) (library stock concentration (final ~1000-fold dilution): 10 mM), the “NF-kB SEAP reporter activity” value in experiment [3] (agonist: LPS (TLR4) 0.1 ug/mL) was 1.3; in experiment [3] (setting [4]), 0.887; in experiment [3] (setting [5]) it was 0.68; in experiment [3] (setting [6]), 0.601.

`COc1cc2ncnc(Nc3cc(Br)c(O)c(Br)c3)c2cc1OC`: the results for the “NF-kB SEAP reporter activity” value in experiment [2] (setting [9]) and in experiment [2] (setting [10]) were 0.787 and 1.53, respectively.

Take `COc1cc2ncnc(Nc3cc(Br)c(O)c(Br)c3)c2cc1OC` (library stock concentration (final ~1000-fold dilution): 10 mM): the “NF-kB SEAP reporter activity” value in experiment [3] (agonist: LPS (TLR4) 0.1 ug/mL) amounted to 2.14; in experiment [3] (setting [4]), 0.951; in experiment [3] (setting [5]), 0.984; in experiment [3] (setting [6]) it was 0.757.

`O=S(=O)(N=Cc1c(O)ccc2ccccc12)c1cccs1`: the results for the “NF-kB SEAP reporter activity” value in experiment [2] (setting [9]) and in experiment [2] (setting [10]) were 0.768 and 1.03, respectively.

For `O=S(=O)(N=Cc1c(O)ccc2ccccc12)c1cccs1` (library stock concentration (final ~1000-fold dilution): 10 mM), the “NF-kB SEAP reporter activity” value in experiment [3] (agonist: LPS (TLR4) 0.1 ug/mL) came to 1.28; in experiment [3] (setting [4]), 0.662; in experiment [3] (setting [5]), 1.04; in experiment [3] (setting [6]), 0.853.

As to `Fc1ccc(CNc2ncnc3ccc(F)cc23)cc1`, the “NF-kB SEAP reporter activity” value in experiment [2] (setting [9]) was 0.988; in experiment [2] (setting [10]), 1.47.

For `Fc1ccc(CNc2ncnc3ccc(F)cc23)cc1` (library stock concentration (final ~1000-fold dilution): 10 mM), the “NF-kB SEAP reporter activity” value in experiment [3] (agonist: LPS (TLR4) 0.1 ug/mL) came out at 2.47; in experiment [3] (setting [4]), 1.19; in experiment [3] (setting [5]), 1.06; in experiment [3] (setting [6]), 1.25.

For the compound `CS(=O)(=O)O.Cc1ccc(NC(=O)c2ccc(CN3CCN(C)CC3)cc2)cc1Nc1nccc(-c2cccnc2)n1`, the “NF-kB SEAP reporter activity” value in experiment [2] (setting [7]) is 1.24; in experiment [2] (setting [8]) it was 1.46.

Consider `CS(=O)(=O)O.Cc1ccc(NC(=O)c2ccc(CN3CCN(C)CC3)cc2)cc1Nc1nccc(-c2cccnc2)n1` (library stock concentration (final ~1000-fold dilution): 10 mM), for which the “NF-kB SEAP reporter activity” value in experiment [1] (agonist: LPS (TLR4) 0.1 ug/mL) was determined as 1.29; in experiment [1] (setting [4]), 0.201; in experiment [1] (setting [5]) it was 1.13; in experiment [1] (setting [6]), 1.25.
